Data on 86 compounds can be found in ChEMBL document CHEMBL4888484, “Replenishing the malaria drug discovery pipeline: Screening and hit evaluation of the MMV Hit Generation Library 1 (HGL1) against asexual blood stage Plasmodium falciparum ,using a nano luciferase reporter read-out” (2022).

Among all 150,000 compounds or so, about 540 (0.36%) showed an effect of 50% or more. The list shows a part of the results.

This test deals with Plasmodium falciparum. In words: Primary screen in NF54 nanoGlo assay, in single point, at 2uM, 72h; a lower Z score goes with more inhibition. The class given is functional, Erythrocyte. Particulars: timepoint 72 hour.
One may read the % Inhibition as the change of the read-out against control, counted positive when it falls. As for `O=C(N[C@H](CO)Cc1ccccc1)c1cc(O)ccc1C(F)(F)F`, the “% Inhibition” value was determined as 7% and the Z score is -0.84.
The matching figures for `O=C1NCCN(C(=O)c2csc(-c3cccs3)n2)[C@H]1Cc1c[nH]cn1`: -14% and 1.77.
Turning to `C[C@@H](C(=O)N1CCc2ccccc21)N1CCn2ccnc2C1`, the “% Inhibition” value is recorded as -10% and the Z score is 2.17.
Consider `C#C[C@H](C)N(C)Cc1cc(OC)cc(OC)c1`, for which the “% Inhibition” value was -10% and the Z score is listed as 1.32.
As for `CCN(CCO)C(=O)N[C@@H](C)c1cn(C(C)(C)C)nc1C`, the “% Inhibition” value is recorded as 0% and the Z score stood at 0.04.
Take `N#Cc1cc2c(nc1N[C@H]1CCCc3cn(C4CCCC4)nc31)CCC2`: the “% Inhibition” value was 6% and the Z score was -1.1.
As to `CC(C)N(Cc1ccc(N(C)C)cc1)C(=O)N[C@@H](C)c1ccccn1`, the “% Inhibition” value is reported as -13% and the Z score is 1.18.
In the case of `Cn1cc(CCCNCc2ccc(C#N)cc2)cn1`, the “% Inhibition” value is reported as -10% and the Z score was found to be 1.43.
In the case of `Cc1csc([C@H](C)NC(=O)c2cncn2C)n1`, the “% Inhibition” value is reported as -2% and the Z score is listed as 0.34.
For `CCc1noc(C)c1C(=O)Nc1nc(C)ns1`, the “% Inhibition” value came out at 6% and the Z score was -0.87.
As to `CCN1CC[C@H](N(C)C(=O)c2cc(OC)no2)C1`, the “% Inhibition” value is -1% and the Z score came out at 0.17.
For `CC(C)(C)c1nn(Cc2ncc(Br)cc2Cl)c(O)c1CCC#N`, the “% Inhibition” value is listed as -13% and the Z score is 2.43.
With `Cc1cccc(N2CCO[C@@H](CF)C2)n1`, the “% Inhibition” value was 5% and the Z score was -0.46.
Turning to `CN1CCN(S(=O)(=O)N2CCC3(CCCC3)C2)CC1`, the “% Inhibition” value is listed as -12% and the Z score came to 1.32.
The corresponding values for `COc1ccc(OC)c2c1cc(C(=O)N1CCOCC1)n2C` are -13% and 1.52.
Turning to `Cc1ccc(NC(=O)c2nnn(CC(=O)Nc3ccc4c(c3)OCO4)c2C)cc1F`, the “% Inhibition” value was 32% and the Z score is reported as -0.6.
As to `CN1CCCc2cc(C(=O)NC3CCCCC3)sc21`, the “% Inhibition” value is given as 1% and the Z score is reported as -0.14.
Regarding `O=C(c1nccc2cccnc12)N1CCC[C@@H]1Cn1ccnc1`, the “% Inhibition” value is -3% and the Z score was found to be 0.47.
The corresponding values for `C[C@@H](C(=O)N1CCOCC1)N1CCN(Cc2cccnc2C(F)(F)F)CC1` are -11% and 1.48.
Regarding `CC1CCCC(C)N(C(=O)Nc2cccnc2)C1` (configuration not stated), the “% Inhibition” value was -7% and the Z score is 1.21.
Regarding `COc1cccc(CCn2ccnc2C(C)C)c1`, the “% Inhibition” value is given as -4% and the Z score amounted to 0.93.
The matching figures for `Cc1cc(C)c(S(=O)(=O)N(CC(=O)N2CCNCC2)C2CCCCCC2)cc1C`: -10% and 1.05.
Turning to `O=C(Nc1cccc(S(=O)(=O)N2CCCCC2)c1)c1ccsc1`, the “% Inhibition” value is recorded as -33% and the Z score is given as 3.85.
The corresponding values for `C/C=C/CC(=O)N1CC(=O)N(c2cccc(OC)c2)C[C@@H]1Cc1ccccc1` are 4% and -0.65.
In the case of `O=C(O)[C@@H]1Cc2c([nH]c3ccccc23)C(c2cccc(F)c2)N1` (some centres not stated), the “% Inhibition” value is reported as -16% and the Z score came to 1.96.
With `C#CCCC1(CCC(=O)N2CCC3(CCCCC3)C2)N=N1`, the “% Inhibition” value was -12% and the Z score is 1.53.
Regarding `Cc1ccc(-c2nc([C@H]3CC(=O)N(c4cccc(O)c4)C3)n(CCO)n2)o1`, the “% Inhibition” value is -4% and the Z score was found to be 0.63.
Regarding `Cc1cnc2cc(C(=O)NC3CC4CC4C3)ccn12` (configuration not stated), the “% Inhibition” value amounted to 2% and the Z score is recorded as -0.29.
The corresponding values for `CN(C)c1ccc(NC(=O)c2cccs2)cc1CN(CC1CC1)C(=O)CC(C)(C)C` are 9% and -1.25.
In the case of `Cc1ccccc1NC(=O)c1nn(C)c2ccccc2c1=O`, the “% Inhibition” value was -14% and the Z score is 1.84.
Turning to `O=C(Cc1nnc(O)c2ccccc12)NCCC(=O)NC1CCCC1`, the “% Inhibition” value is -8% and the Z score stood at 1.12.
As for `O=S(=O)(c1ccccc1Cl)N1CCN(c2nc3nccc(-c4cc(Cl)ccc4Cl)n3n2)CC1`, the “% Inhibition” value is listed as -12% and the Z score was found to be 2.02.
For `Cc1ccc([C@H](CNC(=O)c2oc3cc(Br)ccc3c2C)N2CCC(C)CC2)o1`, the “% Inhibition” value worked out at 0% and the Z score is given as -0.05.
For `CCC(C)C(=O)N1CC(O)CC1CO` (configuration not stated), the “% Inhibition” value is listed as 0% and the Z score was 0.04.
As to `Cc1noc(C)c1C(=O)N(C)Cc1cnn(C)c1`, the “% Inhibition” value is -9% and the Z score worked out at 1.67.
On to `O=C(c1nc2ccc(Cl)cn2c1CN1CC=C[C@@H]1CO)N1CCCCCCC1`, for which the “% Inhibition” value is given as -7% and the Z score was determined as 1.24.
Consider `CC(C)[C@@H]1CN(C(=O)c2nn(C)c(=O)c3ccccc23)CCCN1CC1CC1`, for which the “% Inhibition” value is -9% and the Z score amounted to 1.67.
With `COC[C@@H]1CN(c2cnccn2)C[C@H]1C(=O)NCCn1cccn1`, the “% Inhibition” value was -5% and the Z score was found to be 0.69.
Regarding `O=C(NCc1ncc[nH]1)C1(Cc2nc3ccccc3[nH]2)CCCC1`, the “% Inhibition” value worked out at 30% and the Z score was -0.47.
The matching figures for `Cc1ccc(C)c(CN2CC[C@@]3(CCCN(Cc4cccnc4)C3=O)C2)c1`: -17% and 1.95.
With `c1cncc(-c2n[nH]c(-c3cccc(Cn4cccn4)c3)n2)c1`, the “% Inhibition” value is -17% and the Z score came out at 2.46.
`O=C(CN(Cc1cccs1)Cc1cccs1)N1CCNC1=O`: the “% Inhibition” value is given as -13% and the Z score is 2.42.
As for `COC(=O)C[C@H](c1cccnc1)c1c(Cc2ccccc2)[nH][nH]c1=O`, the “% Inhibition” value is recorded as 5% and the Z score is on record as -0.63.
Consider `NC(=O)C[C@H]1CCN(c2ccccc2S(=O)(=O)C(F)(F)F)C1`, for which the “% Inhibition” value was -3% and the Z score is reported as 0.59.
Consider `C[C@@H](CC(=O)N1CCCc2ccccc21)c1ccccc1`, for which the “% Inhibition” value is listed as -15% and the Z score is given as 2.94.
Regarding `Cc1ccc(C)c(S(=O)(=O)NC(=O)c2ccc3c(c2)OCO3)c1`, the “% Inhibition” value is given as -6% and the Z score came to 1.18.
`CCN(CC)S(=O)(=O)c1cc(-c2nnc(C(=O)N3CCCCC3)o2)cs1`: the “% Inhibition” value worked out at 14% and the Z score is -1.63.
On to `C=CCC[C@@H](CN1CCN(C(C)=O)CC1)Oc1cccc(C#N)n1`, for which the “% Inhibition” value was -10% and the Z score is 1.82.
The corresponding values for `N#CC1C(=O)NC(=N)C(c2nc(-c3ccccc3)cs2)C12CCCCC2` (configuration not stated) are -4% and 0.59.
For `CC(=O)N(CC(=O)N1CCCCC1)c1cccc(C)c1`, the “% Inhibition” value is 1% and the Z score is listed as -0.18.
With `CN1C(=O)[C@@H]2CC[C@H]1CN(C(=O)c1cc(N)ccn1)C2`, the “% Inhibition” value stood at 3% and the Z score is recorded as -0.36.
In the case of `O=C1Cc2cc(S(=O)(=O)N3CCC[C@H]3c3nc4ccccc4s3)ccc2N1`, the “% Inhibition” value was -16% and the Z score stood at 3.11.
For `Cc1n[nH]c(C)c1[C@@H](C)CC(=O)N(C)Cc1nccn1Cc1ccccc1`, the “% Inhibition” value is given as -14% and the Z score worked out at 1.61.
For `CC1CCN(C(=O)C(C)N(C)C2CCN(CC(F)(F)F)C2=O)CC1` (configuration not stated), the “% Inhibition” value is recorded as -3% and the Z score is listed as 0.45.
As to `CC(=Cc1ccccc1)CN1CCO[C@@H](Cn2cccn2)C1`, the “% Inhibition” value is on record as -1% and the Z score worked out at 0.16.
For the compound `C[C@@H](NCc1ccc(F)cc1)c1onc(-c2ccccc2)c1C(=O)O`, the “% Inhibition” value came out at 14% and the Z score is -1.65.
With `C[C@@H]1Oc2ccc(NC(=O)CCc3ccco3)cc2NC1=O`, the “% Inhibition” value is recorded as -3% and the Z score was found to be 0.25.
Regarding `CCn1ccc2ccc(CN(Cc3ccccn3)C[C@@H]3CCC(=O)N3)cc21`, the “% Inhibition” value is reported as 9% and the Z score is given as -1.16.
With `Cc1cc(N2CCN(C(=O)c3ccc(F)cc3)CC2)nc(C2CC2)n1`, the “% Inhibition” value was 11% and the Z score is recorded as -1.44.
As to `CN(Cc1ccsc1)C(=O)CC(F)(F)F`, the “% Inhibition” value is recorded as -11% and the Z score is reported as 1.52.
On to `Cc1cc(NC(=O)N[C@@H](C)C(C)C)no1`, for which the “% Inhibition” value was -12% and the Z score is 1.58.
Turning to `Cc1ccccc1-c1noc([C@@H]2CCCN2S(=O)(=O)c2cccc(Cl)c2C)n1`, the “% Inhibition” value is -2% and the Z score stood at 0.23.
Turning to `Fc1ccccc1-c1nnc2c3ccc(Cl)cc3nc(NCc3ccccc3)n12`, the “% Inhibition” value is reported as 4% and the Z score is recorded as -0.37.
The corresponding values for `CC(C)c1nc2cc(CCC(=O)Nc3ccc4c(c3)OCCO4)ccc2[nH]1` are -8% and 1.17.
As for `Cn1cc(S(=O)(=O)Nc2ccnn2-c2cccc(Cl)c2)cn1`, the “% Inhibition” value is -4% and the Z score is recorded as 0.61.
For `O=C1CN(C2CC2)C(=O)[C@H](COCc2ccccc2)N1`, the “% Inhibition” value was -8% and the Z score is reported as 1.04.
On to `O=C([C@H]1C[C@@H]1c1ccc(F)cc1F)N1CCCS(=O)(=O)CC1`, for which the “% Inhibition” value was -8% and the Z score is given as 0.97.
In the case of `Cc1nn(C)c(C)c1S(=O)(=O)Nc1cccc2[nH]ncc12`, the “% Inhibition” value is -9% and the Z score is 1.26.
As to `O=C(NC[C@H]1C[C@@H]1c1ccccc1)N1CC(=O)N(C2CC2)C1`, the “% Inhibition” value is -9% and the Z score is 1.49.
`COc1ccc(C(=O)NCCNC(=O)c2nc(C3CC3)no2)cc1OC`: the “% Inhibition” value is on record as -9% and the Z score worked out at 0.91.
`COc1ccc(C(=O)N[C@@H](C)c2ncnn2C)cn1`: the “% Inhibition” value is -12% and the Z score came out at 1.14.
Take `CCC(CC)C(=O)Nc1cccc(C(F)(F)F)c1`: the “% Inhibition” value is reported as -2% and the Z score worked out at 0.3.
As to `O=C(CN1C(=O)CCC1=O)NCCc1ccsc1`, the “% Inhibition” value was -16% and the Z score is on record as 2.73.
With `Cc1cccc2[nH]c(CNC(=O)C3CCCC3)nc12`, the “% Inhibition” value was found to be 3% and the Z score is recorded as -0.64.
Consider `COc1ccc2c(c1)[C@H](C(=O)Nc1nncn1C)CC2`, for which the “% Inhibition” value is 2% and the Z score was -0.27.
As for `CN(C)C(=O)N1CCC[C@H](C(=O)NCc2ccc(F)cc2)C1`, the “% Inhibition” value was -9% and the Z score was found to be 1.42.
Turning to `Cc1nn(CC(=O)NCC2(O)CCC(F)(F)CC2)c2ncccc12`, the “% Inhibition” value came out at 12% and the Z score is -1.43.
On to `CN(CCO)c1ccc(C(=O)N2CCN(c3cccc(Cl)c3)C(=O)C2)cc1`, for which the “% Inhibition” value is -5% and the Z score is recorded as 0.68.
For `Cc1[nH]c2ccccc2c1/C=C/c1nccc2ccccc12`, the “% Inhibition” value is listed as -8% and the Z score came to 1.11.
As for `Cc1nc(N2CCOCC2)sc1CNCCn1cccn1`, the “% Inhibition” value was -3% and the Z score came to 0.44.
Consider `CN(CCc1ncnn1Cc1ccc2c(c1)OCO2)S(C)(=O)=O`, for which the “% Inhibition” value was -3% and the Z score is 0.29.
`CN1CN(C(=O)c2c[nH]c(C#N)c2)CC1=O`: the “% Inhibition” value is reported as -5% and the Z score was 0.54.
On to `Cc1cc(NC(=O)NC2CC(C)n3ccnc32)ccn1` (configuration not stated), for which the “% Inhibition” value is -1% and the Z score came out at 0.11.
Turning to `CCNc1ccc(C#N)cc1NCc1nccn1C`, the “% Inhibition” value was -7% and the Z score came to 0.79.
Turning to `COc1ccc(C)cc1/N=C(\NCCc1c(C)nn(C)c1C)NC(=O)c1ccc(OC)c(OC)c1`, the “% Inhibition” value came to 7% and the Z score was -1.35.
On to `COc1cccc(-c2nc(C(=O)NCc3cnn(-c4ccc(F)cc4F)c3)c(C)[nH]2)c1`, for which the “% Inhibition” value is listed as -8% and the Z score stood at 0.7.
